Laboratory results published in paper PMC5803408 (Structure (London, England : 1993), 2018).

Biological target: T1, human UHRF1 TTD-PHD dual domains (residues 126-366) D142A/E153A (human, UniProt Q96T88 126-366, D142A | E153A)
T1 sequence (looked up): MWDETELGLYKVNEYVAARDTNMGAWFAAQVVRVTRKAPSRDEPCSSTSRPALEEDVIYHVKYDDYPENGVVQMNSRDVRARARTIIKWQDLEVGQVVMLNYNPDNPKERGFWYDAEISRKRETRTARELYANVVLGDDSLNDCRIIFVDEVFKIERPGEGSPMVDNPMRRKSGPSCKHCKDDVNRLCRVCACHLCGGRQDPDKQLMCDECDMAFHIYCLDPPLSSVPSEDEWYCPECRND
Experiment: ITC

B1: histone H3 peptide ([…]) trimethylated at lysine 9, followed by a C-terminal tyrosine (peptide)
peptide: not shown
modifications: trimethyl-lysine at 9
  fold reduction of affinity against wild-type TTD-PHD: ~4 fold
